Measurements from PubChem BioAssay AID488969 (Vanderbilt High Throughput Screening Facility, 2010).
Whole data set: some 110,000 compounds, median “z-score” near -0.1, cut for the highest 2% near 2. Some of the results follow.

These molecules were tested against Metabotropic glutamate receptor 8 (Rattus norvegicus) (UniProt P70579) (assay: mGluR8 Gi/Go-coupled signaling modulation – cell-based, rat, thallium flux, HTS, primary screen (AID 488969)). Details: HEK293 rat mGluR8, GIRK (G protein-gated inwardly rectifying potassium channel) thallium flux, FluoZin2; at 10 µM; stronger effect = higher value; submaximal glutamate (EC20) added with thallium.
Sequence of UniProt P70579 (P70579 whole entry, looked up): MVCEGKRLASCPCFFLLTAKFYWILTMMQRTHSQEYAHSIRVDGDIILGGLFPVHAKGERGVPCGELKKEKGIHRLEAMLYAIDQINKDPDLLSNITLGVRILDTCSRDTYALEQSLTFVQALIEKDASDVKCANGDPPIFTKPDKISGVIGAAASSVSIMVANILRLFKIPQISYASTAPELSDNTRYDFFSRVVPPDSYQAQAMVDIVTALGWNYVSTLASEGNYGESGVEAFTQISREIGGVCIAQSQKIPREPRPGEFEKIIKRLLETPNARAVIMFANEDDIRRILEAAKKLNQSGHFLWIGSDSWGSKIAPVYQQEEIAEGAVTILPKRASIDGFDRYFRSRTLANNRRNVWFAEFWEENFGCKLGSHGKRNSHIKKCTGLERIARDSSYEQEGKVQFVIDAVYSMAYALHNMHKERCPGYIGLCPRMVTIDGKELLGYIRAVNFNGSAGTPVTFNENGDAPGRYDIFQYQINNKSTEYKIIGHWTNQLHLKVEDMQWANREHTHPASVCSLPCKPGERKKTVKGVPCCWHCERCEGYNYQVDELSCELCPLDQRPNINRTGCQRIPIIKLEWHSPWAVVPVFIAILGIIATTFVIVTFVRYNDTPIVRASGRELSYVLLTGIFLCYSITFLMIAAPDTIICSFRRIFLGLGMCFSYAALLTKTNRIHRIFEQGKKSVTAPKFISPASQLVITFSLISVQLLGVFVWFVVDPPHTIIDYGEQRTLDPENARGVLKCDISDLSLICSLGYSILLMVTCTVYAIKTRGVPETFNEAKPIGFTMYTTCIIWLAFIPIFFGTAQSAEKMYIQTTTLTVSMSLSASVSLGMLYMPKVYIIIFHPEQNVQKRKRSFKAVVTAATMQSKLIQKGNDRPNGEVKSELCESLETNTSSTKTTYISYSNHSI
Molecule `COc1ccc(CCNC(=O)CSCc2ccc(C)cc2)cc1OC` has a z-score of -0.18. For `O=c1/c(=C\c2cccnc2)sc2nc3ccccc3n12`, the z-score was -0.0361. Molecule `COc1ccccc1NC(=O)C(CC=C(Cl)Cl)C(C)=O` (stereo unspecified) has a z-score of -0.167. `COc1cc2c(cc1OC)CN(CC(=O)Nc1cccc(C)c1)CC2` showed a z-score of -0.581. In the case of `O=C(CCc1nc(-c2ccccc2F)no1)NCCc1ccccc1Cl`, the z-score is reported as -0.748. Molecule `COC(=O)c1ccc(Cl)c(NC(C)=O)c1` has a z-score of 0.411. In the case of `CC(C)NC(=O)c1ccccc1N(Cc1ccccc1)S(C)(=O)=O`, the z-score is reported as 0.373. For `CC(=O)Nc1cccc(NC(=O)CSc2nnc(Cc3cccn3C)n2CCc2ccccc2)c1`, the z-score was -0.499. Work on `COc1ccc(C(OC(=O)c2ccco2)C(=O)NC2CCCCC2)cc1` (stereo unspecified) yielded a z-score of 0.293. Molecule `COC(=O)C1CCN(C(=O)Cc2ccc(Br)cc2)CC1` has a z-score of -0.128. `COc1ccc(Cn2c(/C=C/c3ccccc3)nc3ccccc32)cc1` showed a z-score of -0.424. `CC(c1cccs1)N(C(=O)Nc1ccccc1)C1CCCCC1` (stereo unspecified) gave a z-score of -0.424. With `Cc1ccc(C2C(C#N)=C(N)Oc3cc4c(cc32)OCO4)cc1` (stereo unspecified) the z-score was -0.525. With `Cc1cccc(OCCC(=O)OCC(=O)N2CCc3ccccc32)c1` the z-score was -0.0598. For `N#Cc1c(Nc2ccccc2)c(/C=N/N=C/c2ccccc2)c[nH]c1=O`, the z-score was -1.36. `C=CCSc1nnc(-c2nnc(SCC=C)n2CC)n1CC` was tested, and the z-score was 0.0792. Molecule `COC(=O)c1ccc2c(c1)C(C)(C)C(/C=C/c1ccc(O)cc1)=[N+]2C` has a z-score of -2.19. `CC1(C)C2CCC1(C)C(NC(=O)CCN1CCCCC1)C2` (stereo unspecified) was tested, and the z-score was 0.731. Work on `COc1ccc(NC(=O)/C(C#N)=C\c2cc(C)n(-c3ccc4c(c3)OCO4)c2C)cc1` yielded a z-score of -0.128. Work on `Cn1c(=O)oc2cc(S(=O)(=O)N3CCCC(C(=O)NCc4cccs4)C3)ccc21` (stereo unspecified) yielded a z-score of -0.657. For `CCOC(=O)C1=C(C)C(c2ccccc2O)NC(=O)N1` (stereo unspecified), the z-score was -0.217. `CCc1ccccc1NC(=O)c1cc2sccc2n1C` showed a z-score of -0.142. Molecule `CN(C)c1ccc(C=Nc2ccccc2)cc1` has a z-score of -0.186. With `O=C1NC(=Nc2ccc(Cl)cc2)SC1Cc1cccc(Cl)c1Cl` (stereo unspecified) the z-score was -0.307. Work on `O=C(Nc1ccc(F)cc1F)c1cc2ncc(Br)cn2n1` yielded a z-score of 0.429. `CCN(CCCNC(=O)CN(C)S(=O)(=O)c1cccc2nsnc12)c1ccccc1` was tested, and the z-score was -0.112. `O=S(=O)(c1ccc(N2CCN(CCO)CC2)nc1)N1CCCCC1` showed a z-score of -0.0126. `CC(=O)Nc1nc(=S)ss1` showed a z-score of 0.468. Work on `CCn1cc(C(=O)Nc2ccc(OC)c(OC)c2)c2cc(OC)c(OC)cc2c1=O` yielded a z-score of -0.788. `CCOC(=O)N1CCN(C(=O)CN2C(=O)COc3ccc(C)cc32)CC1` showed a z-score of -0.865. For `CCOC(=O)N1CCN(c2c(NCCc3ccc(OC)c(OC)c3)c(=O)c2=O)CC1`, the z-score was -0.98. With `Cn1c(SCC(=O)NCC2CCCO2)nc2c([nH]c3ccccc32)c1=O` (stereo unspecified) the z-score was -0.0356. For `CCOC(=O)c1c(C)[nH]c(C(=O)COC(=O)CCC2CCCC2)c1C`, the z-score was 0.436. With `O=C(c1cccs1)N1CCCC(c2nc(-c3ccc(F)cc3)no2)C1` (stereo unspecified) the z-score was -0.859. For `CC(C)CCNC(=O)Cc1ccccc1[N+](=O)[O-]`, the z-score was -0.383. `COc1cccc(CN(CC2CCCO2)S(=O)(=O)c2ccc(S(=O)(=O)N(C)C)cc2)c1` (stereo unspecified) showed a z-score of -0.195. With `C=CCc1cccc(/C=N/n2c(C)nnc2C)c1O` the z-score was -0.0696. `O=C(NCc1ccc2c(c1)OCO2)c1ccc(CSCc2ccccc2Cl)o1` gave a z-score of -0.177. For `O=C1/C(=C\Nc2ccccc2)CCN1c1ncccn1`, the z-score was 0.103. In the case of `CC(C)C1N(S(=O)(=O)c2ccccc2)CCN1S(=O)(=O)c1ccccc1`, the z-score is reported as -0.413. Molecule `CC(/C=N/NC(=O)c1cc(-c2ccccc2)nc2ccccc12)=C\c1ccco1` has a z-score of -0.0414. Work on `Cc1ccccc1C(=O)NC(NCC1CCCO1)C(Cl)(Cl)Cl` (stereo unspecified) yielded a z-score of -0.000655. Work on `CCn1c(CNC(=O)C(C)(C)C)nc2ccccc21` yielded a z-score of -0.608. `O=C(N/C(=C/c1ccco1)C(=O)N1CCCCCC1)c1cccs1` showed a z-score of -0.0982. For `COc1cc(O)c2c(c1)COC2=O`, the z-score was -0.316. Work on `COc1ccc(C(=O)N2CCC(C(=O)NCc3ccccn3)CC2)cc1` yielded a z-score of -0.377. `COc1cc(CCC(=O)N2CCN(c3ccc(N4CCOCC4)nn3)CC2)cc(OC)c1OC` was tested, and the z-score was -0.154. With `Cc1ccc(C(=O)CC2(O)C(=O)N(Cc3ccccc3)c3ccccc32)o1` (stereo unspecified) the z-score was -0.497. `COc1ccc(C(=O)CSc2nnc(CN3CCCC3)n2-c2ccc(F)cc2)c(OC)c1` gave a z-score of -0.542. `Cc1cc(N/C=C\C(=O)c2ccc(Cl)c(Cl)c2)no1` gave a z-score of 0.18. With `CCOC(=O)C1=C(C(F)(F)F)Nc2ncnn2C1c1cc(OC)ccc1OC` (stereo unspecified) the z-score was -0.073. `CCOC(=O)Cn1cc(C(=O)OC)c2ccccc21` gave a z-score of 0.0798. `COc1ccc(NC(=O)CCSc2ccc(C)cc2)cc1S(=O)(=O)Nc1ccccc1Cl` gave a z-score of 0.0201. `COc1ccc(C2NC(=O)NC(O)(C(F)(F)F)C2C(=O)c2ccc(F)cc2)cc1` (stereo unspecified) showed a z-score of 0.124. For `O=S(=O)([N-]c1nc2ccccc2nc1-[n+]1ccccc1)c1ccc(Cl)cc1`, the z-score was -0.212. In the case of `Cc1nn(-c2nc(-c3ccco3)cc(C(F)(F)F)n2)c(C)c1Cl`, the z-score is reported as -0.448. Work on `Oc1ccc(-c2onc(C(F)(F)F)c2-c2cscn2)c(O)c1` yielded a z-score of -0.293. Work on `COc1ccc(S(=O)(=O)N(CCCN2CCOCC2)Cc2cccc(OC)c2OC)cc1` yielded a z-score of -0.262. For `COCC(C)NS(=O)(=O)c1ccc(C)cc1` (stereo unspecified), the z-score was -0.139. `O=C(Nc1ccc(Cn2cccn2)cc1)c1ccc(COc2ccccc2Br)cc1` showed a z-score of -0.0941. Work on `Cn1nnnc1SCC(=O)NCCc1ccc(Cl)cc1` yielded a z-score of -0.189. Work on `O=C(CSc1nnc(CNC(=O)C23CC4CC(CC(C4)C2)C3)n1-c1ccc(F)cc1)Nc1ccc(F)cc1` yielded a z-score of -0.327. For `c1ccc(CSc2nnc(-c3ccccn3)n2-c2ccccc2)cc1`, the z-score was -0.0352. `COc1ccc(-n2ncc(S(=O)(=O)c3ccccc3)c2-c2ccc(Cl)cc2)cc1` was tested, and the z-score was 0.351. For `O=C(Nc1ccc2oc(=O)ccc2c1)c1cc2ccccc2o1`, the z-score was -1.25. With `Cc1ccc(-n2c(=S)[nH]c3c(oc4ccccc43)c2=O)cc1` the z-score was 0.618. `CNC(=O)NC(=O)CSc1nc2ccccc2n1CCOC` showed a z-score of -0.465. With `C=CCn1c(CNc2ccc(C)cc2)nnc1SCC(=O)N/N=C/c1ccc(O)cc1O` the z-score was 0.0124. In the case of `O=C1CC(N2CCOCC2)C(=O)N1c1cccc(Cl)c1` (stereo unspecified), the z-score is reported as -0.302. `Cc1ccc(Cn2nnc3c(=O)[nH]c(C4CCN(C(=O)c5cccs5)CC4)nc32)cc1` showed a z-score of -0.73. In the case of `C=CCn1c(SCc2c(C)noc2C)nc2ccccc2c1=O`, the z-score is reported as 0.19.
